In the supplement of paper PMC10300432:
Where a chain is given by its changes, count along the chain named. Recombinant human monoclonal antibodies (heavy:light variable regions). ELISA EC50 on the named antigen, from 10 µg/ml down; IC50 against spike pseudovirus on HT1080-ACE2 cells, 48 h; lower = stronger. Calls: IC50 above 1,000 ng/ml = non-neutralizing; EC50 above 1,000 ng/ml = non-binder.

B1: C5292 (protein)
chain 1: QVQLVESGGGVVQPGRSLRLSCEASGFSFSNYGMHWVRQTPGKGLEWVAVIWYDGSDTYYADSVKGRFTISRDDSKNTLYLQMNSLRAEDTAVYYCAKGDWYSSTWHFFFEYWGQGTLVTVSS
chain 2: EIVMTQSPATLSVSPGERATLSCRANQSVSTNLAWYQQKPGQAPRLLIYGASTRATGIPARFSGSGSGTEFTLTISSLQSEDFAVYYCQQYKNWPPITFGQGTRLEIK
B2: C5293 (protein)
chain 1: EVQLLESGGALLPPGGSLRLSCLVSGFPFSNYAMSWVRQAPGKGLEWVSGISGRGDISYYADSVKGRFTVSRDNAKNTLYLQMSRLSADDTAVYYCAKDQDMTMVQPEYFHHWGLGTLVTVSS
chain 2: DIQMTQSPSSVSASIGDRVTITCRASQGINRWLAWYQQKPGKAPKLLIYGASTLQSGVPSRFSGSGSGTDFTLTISSLQPEDFATYYCQQADSSPYTFGQGTKLEIK
B3: C5294 (protein)
chain 1: EVQLVESGGSLAQPGGSLRLSCAASGFTFSTHDMHWLRQSPEKGLEWVSAIGTSGDTYYSDSVKGRFTISRENAKNSLYLQMNSLRAGDTAVYYCARGGRGYTFGSWYFDLWGRGTLVTVSS
chain 2: DIQMTQSPPSLSASVGDRVTITCRASQSITNYLNWYQQKPGKAPKLLIYAASTLQSGVPSRFSGSGSGTDFTLTISSLQPEDFATYYCQQSYTMPPITFGQGTRLEIK
B4: C5295 (protein)
chain 1: EVQLVESGGGLVQPGGSLRLSCSGSGFILSDFGMHWVRQAPGKGLEYVSAITSYGNSTYYADSVKGRFTISRDNSKNTLYLQMSSLRTEDTAVYYCAKSMVRGHAYYYGMDVWGQGTTVTVSS
chain 2: DIQMTQSPSSLSASVGDRVTITCRASQSIYNFLNWFQQKPGKAPKLLIHAASSLQSGVPSRFSGSGSGTDFTLTISTLHPEDFATYYCQQSYTTPHTFGQGTKLEIK
B5: C5296 (protein)
chain 1: QVQLVESGGGVVQPGRSLRLSCAASGFTFSIYGMHWIRQAPGKGLEWVAAIWYDGSNKNYADSVKGRFTVSRDNSKSTLYLQINSLRSEDTAVYYCAKGLGTYASGWYSDYWGQGTLVTVSS
chain 2: DIQMTQSPSSLSASVGDRVTITCQASQDISNFLNWFQQKPGKAPKLLIYDASNLETGVPSRFSGSGSGTDFTFTISSLQPEDFATYYCQRYDNLPTWTFGQGTKVEIK
B6: C5052 (protein)
chain 1: QVQLVQSGAEVKKPGSSVRVSCKASGGPFSIYAISWVRQTPGLGPEWMGEIIPISGTPNYAQKFRDRVTITADESTSTVYMELSSLRSDDTAVYYCARGGRAYFDDNSGYWTFFDYWGQGTLVTVSS
chain 2: DIQMTQSPSSLSASVGDRVTITCRASQNISRFLNWYQQKPGKAPKLVIYAASTLQSGVPSRLSGSGSGTVFSLTISGLQPEDFSTYFCQQSYNAPRTFGQGTKLEIK
B7: C5297 (protein)
chain 1: QVQLVESGGGVAQPGRSLRLSCAGSGFSFSRYAMHWVRQAPGKGLEWVAVISSHGSNENYADSVKGRFTISRDDSKNTLYLQMNSLRAEDTAVYYCARGPPGWEVLLPFDFWGQGTLVTVS
chain 2: SYVLTQPPSVSVAPGQTATITCVGDNIRSKSVHWYQQKPGQAPVVVIYYDSDRPSGTPERFSGSNSGNTATLSVSRVEAGDEADYHCQVWDSSSDHWVFGGGTKLTVL
B8: C5298 (protein)
chain 1: QVQLVQSGAEVKKPGASVKVSCKAYGYTFTSYYIHWVRQAPGQGLEWMGIINPDAGSTTYAHKFQGRVTLTTDTSTSTVYMKLSSLRSEDTAVYYCARDLVLIPAINSLDFWGQGTLVTVSS
chain 2: EIVLTQSPATLSLSPGERATLSCRASQSVSSYLAWYQQKPGQAPRLLIYDASNRATGIPARFSGGGSGTDFTLTISSLEPEDFAVYYCQQRSGWPRVFTFGPGTKVDIK
B9: C5299 (protein)
chain 1: QVQLVQSGAEVKKPGASVKISCKASGYSFSDHYIYWVRQAPGQGLEWMGIINPSGGSISYHRRFQGRVTMTRDTSTKTVYMDLSRLRSEDTAVYYCARSSFGVPAASPFDHWGQGTLVTVSS
chain 2: EIVMTQSPAILSVSPGERATLSCRASQSVGTNLAWYQQKPGQAPRLLIYGASTWDTDIPTRFSGSGSGTEFTLTISSLQSEDFAVYYCQHYSNWPPVYTFGQGTKLEIK
B10: C5301 (protein)
chain 1: QVQLVQSGAEVKKPGSSVKVSCQASGGPFSRFAINWVRQAPGQGLEWMGGIIPGLGTTFYARHSHAQDFQGRVTITADESTSTAYLELSSLRSEDTAIYYCARDWWHYDRSGNYGYNWYFDLWGRGTLVTVSS
chain 2: QSVLTQPPSVSGAPGQRVTISCTGLSSNIGTDYDVHWYQQLPGTAPKLLIYGNTNRPSGVPDRFSGSRSGTSASLAITGLQAEDEADYFCQSYDSSLSSYVVFGGGTKVTVL
B11: C5302 (protein)
chain 1: EVQLVESGGGLVKPGGSLRLSCAASGFIFKTSDMNWVRQAPGGGLEWVSSIGGRNNFLYYADSVKGRFTISRDNAKNSLYLQMNNLRAEDTAVYYCAGGGYHPLLEPNWFDPWGQGTLVTVSS
chain 2: EIVMTQSPATLSVSPGERATLSCRASQSVSNNLAWYQQKFGQAPRLLIYGASTRATGIPARFSGSGSGTEFTLTISSLQSEDFAVYYCQQYHIWPPTLTFGGGTKVEIK
B12: C5303 (protein)
chain 1: EVQLVQSGVEVKKPGESLKISCKGSGYSLTTSWIGWVRQMPGKGLEWMGIIYPGDSDTRYSPSFQGQVTISADKSINTAYLQWSSLKASDTAMYYCARHRDRALYGEPFDLWGQGTMVTVSS
chain 2: B4 chain 2 with A25S, Y30T, F32Y, F36Y, H49Y, A50G, T77S, H79Q, T93S
B13: C5304 (protein)
chain 1: EVQLVQSGAEVKKPGESLRISCQGSGYSFISYWISWVRQMPGKGLEWMGRLDPSDSYTNYSPSFQGHVTFAADKSINTVYLQWSSLKASDTAIYYCARHDYGDYGAFDIWGQGTMVTVSS
chain 2: EIVLTQSPGTLSLSPGERATLSCRGSQSVSSSYLAWYQQKPGQAPRLLIYGASSRATGIPDRFSGSGSGTDFTLTISRLEPEDFAVYYCQQSGRSPTFGGGTKVEIK
B14: C5305 (protein)
chain 1: EVQLVESGGGLVQPGGSLRLSCVASGFTFSSYDMHWVRQTTGKGLEWVSGIGTSGDTYYEDTVKGRFTISRENAKNSVYLQMNSLRAGDTAEYYCVRGADSDYYWYFDLWGRGTLVTVSS
chain 2: DIQMTQSPSSLSASVGDRVTITCRASQSIRSYLNWYQQKPGRAPKLLIFGASSLQRGVPSRFSGSGSGTEFTLTISSLQPEDFATYYCQQGYTMPPPTFGQGTRLEIK
B15: C5306 (protein)
chain 1: QVQLVQSGAEVKKPGASVKVSCKASGYTFTSYGITWVRQAPGQGLEWLGWISAYNGNTNYARKLQGRVTMTTDTSTSTAYMEVRSLRSDDTAVYYCARGMAVAGTAPPDYWGQGTLVTVSS
chain 2: QSVLTQPPSASGTPGQRVTISCSGSSSNIGSNFVYWYQQLPGTAPKLLIYSSNQRPSGVPDRFSGSKSGTSASLAITGLRSEDEADYYCAAWDDSLSGYVVFGGGTKLTVL

What follows are binders tested against SARS-CoV-2 Omicron BA.1 spike pseudovirus (assay: pseudovirus neutralization IC50; higher = weaker neutralization).
Description: (§1)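 Single-round luciferase reporter pseudovirus mixed with antibody dilutions and put on HT1080-ACE2 clone 14 cells for 48 h; signal relative to no-antibody wells, four-parameter fit.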

| Binder | pseudovirus neutralization IC50 [ng/mL] |
| --- | --- |
| B1 | > 1000 |
| B2 | 1.34 |
| B3 | > 1000 |
| B4 | 1.52 |
| B5 | > 1000 |
| B6 | 1.41 |
| B7 | > 1000 |
| B8 | > 1000 |
| B9 | > 1000 |
| B10 | 147 |
| B11 | 980 |
| B12 | > 1000 |
| B13 | > 1000 |
| B14 | > 1000 |
| B15 | > 1000 |

Each binder was assayed against SARS-CoV-2 Omicron BA.4/5 spike pseudovirus in the same assay as above.
Description: as §1

| Binder | pseudovirus neutralization IC50 [ng/mL] |
| --- | --- |
| B1 | > 1000 |
| B2 | 1.35 |
| B3 | > 1000 |
| B4 | > 1000 |
| B5 | > 1000 |
| B6 | > 1000 |
| B7 | > 1000 |
| B8 | > 1000 |
| B9 | > 1000 |
| B10 | 322 |
| B11 | 681 |
| B12 | > 1000 |
| B13 | > 1000 |
| B14 | 754 |
| B15 | > 1000 |

The binders below were run against SARS-CoV-2 Wuhan-Hu-1 spike pseudovirus in the same assay as above.
Description: as §1

| Binder | pseudovirus neutralization IC50 [ng/mL] |
| --- | --- |
| B1 | > 1000 |
| B2 | 2.72 |
| B3 | > 1000 |
| B4 | 0.851 |
| B5 | > 1000 |
| B6 | 0.612 |
| B7 | 9.45 |
| B8 | > 1000 |
| B9 | > 1000 |
| B10 | 36.9 |
| B11 | 256 |
| B12 | 89.9 |
| B13 | 115 |
| B14 | 741 |
| B15 | > 1000 |

These binders were tested against SARS-CoV-2 Wuhan-Hu-1 spike receptor-binding domain (assay: ELISA binding EC50; higher = weaker binding; ELISA of recombinant human antibody on coated antigen, from 10 µg/ml in fourfold dilutions; four-parameter fit.).

| Binder | ELISA binding EC50 [ng/mL] |
| --- | --- |
| B1 | 25.1 |
| B2 | 2.27 |
| B3 | 3.62 |
| B4 | 2.04 |
| B5 | 3.72 |
| B6 | 2.65 |
| B7 | 3.3 |
| B8 | 5.22 |
| B9 | 4.79 |
| B10 | 3.93 |
| B11 | 3.08 |
| B12 | 3.8 |
| B13 | 6.61 |
| B14 | 3.17 |
| B15 | 7.76 |
